Assay results as given in paper PMC4336329 (PLoS ONE, 2015).
About 2,200 (0.71%) of roughly 310,000 compounds showed an effect of 50% or more. The effect is printed as a negative number. The list shows a part of the results.

Each compound was assayed against human ether-à-go-go-related gene (hERG) potassium channel (human, UniProt Q12809) (assay: primary screen, population patch clamp on CHO cells stably expressing hERG).
Sequence of human ether-à-go-go-related gene (hERG) potassium channel (Q12809 whole entry, looked up): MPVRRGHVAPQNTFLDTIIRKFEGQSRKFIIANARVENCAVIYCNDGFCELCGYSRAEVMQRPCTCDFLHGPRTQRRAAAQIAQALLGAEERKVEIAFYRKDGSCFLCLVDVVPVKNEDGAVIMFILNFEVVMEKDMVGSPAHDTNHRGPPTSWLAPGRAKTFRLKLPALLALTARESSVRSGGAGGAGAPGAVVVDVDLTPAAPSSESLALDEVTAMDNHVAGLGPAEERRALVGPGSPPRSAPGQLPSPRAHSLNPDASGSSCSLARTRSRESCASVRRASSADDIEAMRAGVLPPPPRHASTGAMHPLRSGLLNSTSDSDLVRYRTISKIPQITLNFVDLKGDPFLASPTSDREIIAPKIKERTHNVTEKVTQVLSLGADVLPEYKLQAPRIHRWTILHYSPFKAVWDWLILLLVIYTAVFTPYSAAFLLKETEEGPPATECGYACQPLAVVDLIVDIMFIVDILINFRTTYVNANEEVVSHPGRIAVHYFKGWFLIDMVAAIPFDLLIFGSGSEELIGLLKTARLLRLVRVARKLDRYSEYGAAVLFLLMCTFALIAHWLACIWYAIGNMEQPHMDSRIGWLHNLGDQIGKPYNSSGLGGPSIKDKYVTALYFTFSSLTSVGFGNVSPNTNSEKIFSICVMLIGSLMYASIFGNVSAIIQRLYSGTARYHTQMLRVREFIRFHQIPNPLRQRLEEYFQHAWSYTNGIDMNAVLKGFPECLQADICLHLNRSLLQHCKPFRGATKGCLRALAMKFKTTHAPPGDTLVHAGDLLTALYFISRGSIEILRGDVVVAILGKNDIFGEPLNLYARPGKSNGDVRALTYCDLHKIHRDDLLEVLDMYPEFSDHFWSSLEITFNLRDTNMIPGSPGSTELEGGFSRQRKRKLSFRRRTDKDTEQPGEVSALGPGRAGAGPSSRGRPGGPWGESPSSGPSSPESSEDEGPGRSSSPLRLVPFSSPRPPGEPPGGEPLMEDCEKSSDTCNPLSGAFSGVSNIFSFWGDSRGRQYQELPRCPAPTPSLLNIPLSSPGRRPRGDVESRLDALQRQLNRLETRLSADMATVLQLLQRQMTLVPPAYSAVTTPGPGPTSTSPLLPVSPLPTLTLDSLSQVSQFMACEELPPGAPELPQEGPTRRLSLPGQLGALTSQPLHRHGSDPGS

SMILES	hERG current change (%, negative = inhibition) at 1uM [%]
O=C(Nc1cccc(-c2ccc(N3CCOCC3)nn2)c1)c1ccc(F)cc1F	5.7
Cc1ccc2c(CN(C)Cc3ccc(OC(F)F)cc3)cc(=O)oc2c1C	9.1
COc1ccc(C(=O)N/N=C/c2ccc3cccc(O)c3n2)cc1	0.291
C/C(Cn1cnc([N+](=O)[O-])n1)=N\NC(=O)c1ccc(O)cc1O	16.9
Fc1ccc(NC(=S)Nc2cccnc2)c(F)c1F	0.66
c1ccc2oc(-c3ccc(Nc4nc(N5CCCCC5)nc(N5CCOCC5)n4)cc3)nc2c1	-2.86
COc1ccc(N(CC(=O)NCc2ccco2)S(C)(=O)=O)cc1OC	4.42
CC1(C)CC(=O)C=C(NCCc2ccc(S(N)(=O)=O)cc2)C1	-6.01
CN(c1ccc(O)cc1)S(=O)(=O)c1ccc2ccccc2c1	12.7
O=C(NCc1ccco1)c1cccc(Br)c1	12
O=C(Oc1ccccc1)N1CCN(c2ccccc2F)CC1	7.37
O=C(COC(=O)Cc1cccs1)Nc1ccccc1	-9.05
Cc1cc(C)n(CCC(=O)N/N=C/c2c(O)ccc3ccccc23)n1	12.3
Cn1c(CNC(=O)c2ccc3c(c2)OCO3)nnc1SCC(=O)Nc1ccc(F)cc1	12.7
COc1cccc(C(=O)Nc2ccc(Cl)c(C(F)(F)F)c2)c1	8.09
Nc1ccc(C(=O)[O-])c(O)c1.[Na+]	16.8
CCOc1ccc(C(=O)CSc2nnc3ccccn23)cc1	11.2
Cc1c(NC(=O)c2ccc3c(c2)OCO3)cccc1-c1nc2ccccc2s1	9.04
COc1ccc(OC)c(S(=O)(=O)NC2CCN(Cc3ccccc3)CC2)c1	6.08
Cc1ccc(CS(=O)Cc2ccc(C(=O)NC3CCCCCC3)o2)cc1 (stereo not drawn)	10.5
CCC(C)c1ccc(S(=O)(=O)N2CCN(C(C)C(=O)NC3CCCC3)CC2)cc1 (stereo not drawn)	5.3
CCCCC(=O)Nc1ccc(NC(=O)c2ccc([N+](=O)[O-])cc2)cc1OC	8.93

SMILES	hERG current change (%, negative = inhibition) at 1uM [%]
Cc1ccccc1OCC(=O)Nc1cccc2nsnc12	-0.503
COc1ccc(N2CCN(CC(=O)Nc3nnc(-c4ccccc4)s3)CC2)cc1	3.58
CC(=O)Nc1ccc(S(=O)(=O)N2CCN(CCc3ccccc3)CC2)cc1	-0.763
Cc1ccc(NC(=O)CSc2ccc(-c3ccc(-n4cccn4)cc3)nn2)c(C)c1	8.44
CN(C(=O)COC(=O)c1ccc2c(c1)NC(=O)CS2)C1CCS(=O)(=O)C1 (stereo not drawn)	29.2
CN(c1ccccc1C(=O)Nc1ccc(S(=O)(=O)N2CCOCC2)cc1)S(=O)(=O)c1ccccc1	11.2
CCOc1ccccc1CN1CCC(Oc2cccc(C(=O)NCCOC)c2)CC1	6.93
Cc1ccc2c(c1)c1c(c(=O)n(-c3ccccc3C)c(=O)n1CC(=O)NCC1CCCO1)n2C (stereo not drawn)	0.188
C#CCOCCOCCOCCNc1nc(N2CCN(C(=O)[C@H]([C@@H](C)CC)n3cc([C@@H](N)CC(C)C)nn3)CC2)nc(N2CCN(C(=O)[C@H](Cc3cc4ccccc4[nH]3)n3cc([C@@H](N)Cc4ccc(O)cc4)nn3)CC2)n1.Cl	11.7
COc1ccc(OCC(O)CN(C)C(=O)/C=C/c2cccc([N+](=O)[O-])c2)cc1 (stereo not drawn)	-56.7
CC(=O)N1CCc2cc(C(=O)CN3CCN(c4cccc(Cl)c4)CC3)ccc21	5.18
O=C(CN1CCOCC1)N/N=C/C=C/c1ccccc1	4.56
CCCCc1c(C)[nH]c(=S)[nH]c1=O	11.1
COC(=O)CNS(=O)(=O)c1ccc(Cc2ccc(S(=O)(=O)NCC(=O)OC)cc2)cc1	1.55
Cc1nc(NNC(=O)c2ccc([N+](=O)[O-])cc2)cc(-c2ccccc2)n1	-3.05
Cc1noc(NS(=O)(=O)c2ccc(NC(=O)C34CCC(CC3)C4)cc2)c1C	-5.04
COc1ccccc1NC(=O)c1nc[nH]c1C(=O)Nc1ccccc1OC	22.2
C=C1N(C)c2cc([N+](=O)[O-])c(N)cc2C1(C)C	-7.6
CCSc1nnc(NC(=O)CCc2ccc(OC)cc2)s1	12.6
CCC(=O)Nc1ccc(C(=O)Nc2cccc(OC)c2)cc1	4.71
Cc1cccc(N(C)c2cc(C)nc3ncnn23)c1	8.88
CCOc1ccccc1NC(=O)c1cc2ccccc2oc1=O	19.1

SMILES	hERG current change (%, negative = inhibition) at 1uM [%]
O=C(CCS(=O)(=O)c1ccc(Br)cc1)Nc1ccccn1	15.2
Cc1ccc(C(=O)N2CCC3(CC2)Oc2ccc(F)cc2C(=O)C32CC(c3ccccc3)=NO2)s1 (stereo not drawn)	20.3
O=C(NCC1CCN(c2ccc(S(=O)(=O)N3CCOCC3)cc2)CC1)Nc1ccccc1F	8.44
O=C(c1ccccc1)c1ccccc1C(=O)c1ccccc1	11.9
COc1ccc(OCC(=O)Nc2c3c(nn2-c2ccccc2)CS(=O)(=O)C3)cc1	7.69
COc1ccc(C)cc1S(=O)(=O)Nc1cccc(-c2cn3cccnc3n2)c1	16.9
Cc1nn(C)cc1C(=O)Nc1c(C)nn(Cc2ccccc2Cl)c1C	12.4
CC(C)C1C(C#N)=C(N)Oc2n[nH]c(-c3cccs3)c21 (stereo not drawn)	10
O=c1c([N+](=O)[O-])c(O)c2cccc3c2n1CCC3	6.23
COc1cccc(C(=O)Nc2cc3c4c(c2)CC(=O)N4CCC3)c1	12.5
NC(=O)COc1ccc2c3c(c(=O)oc2c1)CCCCC3	8.39
CCOC(=O)Cn1c(=O)oc2cc(S(=O)(=O)Nc3cc(OCC)ccc3OCC)ccc21	-26.3
CSCCC(NC(=O)CCC(=O)OCC(=O)[C@@]1(O)CCC2[C@@H]3CCC4=CC(=O)C=C[C@]4(C)C3[C@@H](O)C[C@@]21C)C(=O)O (stereo partly drawn)	11.2
O=C(c1ccc([N+](=O)[O-])s1)N1CCN(c2ccccc2)CC1	-2.79
COc1c(C)cc(Br)cc1C(=O)O	6.87
O=C(Cc1ccccc1Cl)Nc1cccc(S(=O)(=O)N2CCCCCC2)c1	10.2
C[C@@H]1C=C(C(=O)O)O[C@H](OCc2ccc(CO)cc2)C1	1.51
N/C(Cn1cncn1)=N\NC(=O)c1ccc(Cl)cc1Cl	12.1
Cc1cccc(N=Cc2c(O)n(-c3ccccc3C)c(=O)[nH]c2=O)c1	12.1
CC(=O)N1c2ccccc2[C@H](C)[C@H]1C	3.73
Cc1cc(C(=O)NCC(c2ccco2)N2CCCC2)c2ccccc2n1 (stereo not drawn)	2.56
NS(=O)(=O)c1ccc(CCNC(=O)c2coc3ccccc3c2=O)cc1	14.4

SMILES	hERG current change (%, negative = inhibition) at 1uM [%]
Cc1noc(C)c1S(=O)(=O)N1CCC(C(=O)N(C)Cc2ccccc2)CC1	-0.487
O=C(NCCCn1ccnc1)Nc1ccc(Cl)cc1	2.55
CC(C)Oc1cc(O)c2c(=O)c(-c3ccc(O)cc3)coc2c1	12.5
Cc1[nH]c(=S)c(C#N)c(C)c1Cc1ccc(Cl)cc1Cl	5.41
CC(C)(C)C1CCc2c(sc(NC(=O)c3cccs3)c2C(N)=O)C1 (stereo not drawn)	10
N#CC(NC(=O)OCc1ccccc1)c1ccccc1 (stereo not drawn)	8.92
OCC[C@H]1C[C@H](O)[C@@H](O)[C@@]2(CCc3ccccc3O2)O1	-8.9
COc1ccc(NC(C)=O)cc1NC(=O)CSc1nnc(-c2ccc(F)cc2)n1N	4.09
CC1CCCC(C)N1C(=O)COC(=O)Cc1ccc(Cl)cc1 (stereo not drawn)	13.7
Cc1ccc(NC(=O)Nc2ccc3c(c2)CCC3)cc1C	-17.6
COc1ccc(C2CC(O)(c3ccccc3)Oc3cc(OC)c(OC)c(OC)c32)cc1 (stereo not drawn)	14.4
Cc1ccc2cccc(NS(=O)(=O)c3ccccc3)c2n1	5.63
COc1cccc(NS(=O)(=O)c2ccc(C)c(C(=O)N3CCCCC3)c2)c1	9.36
Cc1ccc(CN2CCN(Cc3nc4c(s3)CCCC4)CC2CCO)cc1 (stereo not drawn)	-24.9
CC(C)NC(=O)COc1ccc(Cl)cc1Cl	6.86
Cc1c2cnn(CC(=O)N3CCC4(CC3)OCCO4)c(=O)c2c(C)n1Cc1ccccc1F	14.7
O=C1CCCCCN1Sc1ccccc1	10.5
O=S(=O)(c1ccc(OCc2nc3ccccc3s2)c(Cl)c1)N1CCOCC1	12.2
C[C@]12CC[C@@H]3c4ccc(O)cc4CC[C@H]3[C@@H]1CC[C@@H]2OC(=O)CCC1CCCC1	16.2
CC(=O)c1ccc(Nc2ncnc3c2oc2ccccc23)cc1	10.2
Cc1cccc(-n2nc3c(c2NC(=O)c2ccco2)CS(=O)(=O)C3)c1C	-6.7
